Results taken from article PMC4336329 (PLoS ONE, 2015).
Screen size: about 310,000 compounds; about 2,200 (0.71%) showed an effect of 50% or more. Effects have a minus sign here. This is one part of the list.

These compounds were tested against human ether-à-go-go-related gene (hERG) potassium channel (human, UniProt Q12809) (assay: primary screen, population patch clamp on CHO cells stably expressing hERG).
Chain of human ether-à-go-go-related gene (hERG) potassium channel (Q12809 whole entry, looked up): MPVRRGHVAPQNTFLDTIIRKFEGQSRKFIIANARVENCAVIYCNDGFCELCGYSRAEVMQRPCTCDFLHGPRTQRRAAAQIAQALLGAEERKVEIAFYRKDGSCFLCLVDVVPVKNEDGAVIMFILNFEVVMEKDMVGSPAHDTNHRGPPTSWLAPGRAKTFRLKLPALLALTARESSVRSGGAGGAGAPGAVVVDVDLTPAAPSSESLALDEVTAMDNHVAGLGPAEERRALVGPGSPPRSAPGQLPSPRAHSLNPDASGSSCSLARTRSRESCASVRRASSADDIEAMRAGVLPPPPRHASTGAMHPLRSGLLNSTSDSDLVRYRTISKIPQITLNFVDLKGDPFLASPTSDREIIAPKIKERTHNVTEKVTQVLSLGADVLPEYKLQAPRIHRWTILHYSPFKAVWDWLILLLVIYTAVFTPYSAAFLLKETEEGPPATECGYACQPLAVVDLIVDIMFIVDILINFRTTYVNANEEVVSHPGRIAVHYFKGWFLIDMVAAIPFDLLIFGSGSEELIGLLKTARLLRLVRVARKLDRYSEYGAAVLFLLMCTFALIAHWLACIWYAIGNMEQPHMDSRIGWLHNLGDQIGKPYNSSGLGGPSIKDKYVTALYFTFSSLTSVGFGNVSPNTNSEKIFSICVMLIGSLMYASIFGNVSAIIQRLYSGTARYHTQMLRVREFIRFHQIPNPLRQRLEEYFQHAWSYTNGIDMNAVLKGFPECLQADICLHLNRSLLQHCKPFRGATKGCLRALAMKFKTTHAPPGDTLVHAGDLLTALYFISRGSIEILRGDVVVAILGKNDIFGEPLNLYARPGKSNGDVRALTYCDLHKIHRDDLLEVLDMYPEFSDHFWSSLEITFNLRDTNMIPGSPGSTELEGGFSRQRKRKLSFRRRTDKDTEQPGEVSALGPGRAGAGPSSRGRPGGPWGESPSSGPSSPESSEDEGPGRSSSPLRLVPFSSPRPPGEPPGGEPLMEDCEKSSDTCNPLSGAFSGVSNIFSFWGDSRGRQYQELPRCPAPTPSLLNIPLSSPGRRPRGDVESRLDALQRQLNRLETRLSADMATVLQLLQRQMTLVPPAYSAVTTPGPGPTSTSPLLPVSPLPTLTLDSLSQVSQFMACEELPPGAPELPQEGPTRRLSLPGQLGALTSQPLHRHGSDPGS

Row | SMILES | hERG current change (%, negative = inhibition) at 1uM [%]
1 | O=C(NC1C2CC3CC(C2)CC1C3)c1ccc2c(c1)OCO2 (stereo not shown) | 16
2 | Cc1ccc(N2C(=O)c3ccc(C(=O)N4CCN(c5cccc(C)c5C)CC4)cc3C2=O)cc1 | -1.93
3 | COC(=O)Cn1cnc2c(nnn2-c2ccc(OC)cc2)c1=O | 20.1
4 | Cc1cc(C)c(S(=O)(=O)N2CCOC2CNC(=O)C(=O)NCCCN2CCOCC2)c(C)c1 (stereo not shown) | 14.3
5 | COc1ccc(NC(=O)C(c2ccc(OC)cc2)N(C)C(=O)CC2NC(=O)NC2=O)cc1 (stereo not shown) | 17.1
6 | Cc1noc(C)c1COC(=O)c1cccc(S(=O)(=O)N2CCCCCC2)c1 | 0.182
7 | CN(C)CCN1C(=O)C(=O)/C(=C(/O)c2ccc3c(c2)OCCO3)C1c1ccccn1 (stereo not shown) | 13.3
8 | CC(C)CN1C(=O)NC2(CCCc3ccccc32)C1=O (stereo not shown) | 1.77
9 | O=C(N/N=C/c1coc2ccccc2c1=O)c1cn(-c2ccccc2)nc1-c1ccccc1 | 14.4
10 | CCOc1ccc(S(=O)(=O)N(C)CC(=O)N2CCN(CC)CC2)cc1 | 9.39
11 | O=C(CSc1ccc(Cl)cc1)Nc1cccc(NC(=O)c2ccco2)c1 | 3.88
12 | O=C1N=C(N2CCCCC2)S/C1=C\c1ccccc1F | 8.44
13 | CC(=O)c1cccc(NC(=O)Cn2cnc(S(=O)(=O)N3CCCCC3)c2)c1 | 14.1
14 | CCOC(=O)CSc1nc2cc3c(cc2cc1C)OCO3 | 9.2
15 | NC(=S)N/N=C/c1coc2ccc(O)cc2c1=O | -7.72
16 | COc1ccc(NC(=O)CN2C(=O)c3ccccc3S2(=O)=O)cc1OC | 10.1
17 | C/C(=N/NC(=O)CNC(=O)C(c1ccccc1)c1ccccc1)c1ccco1 | 10.9
18 | COC(=O)c1cc(Cl)cc2c(C)c(C3(O)CCCCC3)[nH]c12 | 11.6
19 | Cc1noc(C)c1S(=O)(=O)Nc1cccc(C(F)(F)F)c1 | 14.2
20 | COc1cccc(C(=O)N2C[C@H]3C[C@@H](C2)c2cccc(=O)n2C3)c1 | 9.82
21 | CC(=O)Nc1cccc(NC(=O)COC(=O)CO/N=C(\C)c2ccc3c(c2)OCO3)c1 | 8.95
22 | Cc1ccc(NC(=S)NNc2ccc([N+](=O)[O-])cc2S(=O)(=O)Nc2ccccc2C(=O)O)cc1C | 11

Row | SMILES | hERG current change (%, negative = inhibition) at 1uM [%]
23 | Nn1c(SCC(=O)NCCC2=CCCCC2)nnc1C(F)(F)F | -6.35
24 | O=C(N/N=C/c1cc(Br)ccc1O)C(=O)Nc1ccccc1OC(F)(F)C(F)F | 2.65
25 | Cc1ccc(S(=O)(=O)N(C)CCCC(=O)N2CCN(c3ccccn3)CC2)cc1.[O-][Cl+3]([O-])([O-])O | -10.1
26 | CC(=O)c1cccc(Nc2ncnc3ccc(Br)cc23)c1 | -2.27
27 | O=C(ONC1=NCCCCC1)c1ccc([N+](=O)[O-])cc1 | 13.7
28 | CNc1ccc2oc(C[C@H]3O[C@@]4(CC[C@H]3C)O[C@H]([C@H](C)C(=O)c3ccc[nH]3)[C@H](C)C[C@H]4C)nc2c1C(=O)O | 14.2
29 | O=C(COC(=O)c1ccc(F)cc1Cl)Nc1cccc(S(=O)(=O)N2CCOCC2)c1 | 5.46
30 | Br.O=C(CN1C2=NCCCN2c2ccccc21)c1ccc([N+](=O)[O-])cc1 | -54
31 | CCCCN(CCCC)c1cn[nH]c(=O)c1Cl | 5.35
32 | COc1ccc(CCNC(=O)c2cnn(-c3ccc(C)c(C)c3)c2NC(=O)c2ccco2)cc1OC | 4.54
33 | CC(C)(Oc1ccc(Cl)cc1)C(=O)Nc1ccncc1 | -6.08
34 | Cc1nc2ccccn2c1/C(O)=C1\C(=O)C(=O)N(CCCn2ccnc2)C1c1ccncc1 (stereo not shown) | 1.38
35 | O=S(=O)(NCCc1ccncc1)c1ccc(S(=O)(=O)N2CCCCCC2)cc1 | -1.37
36 | CC(C)(C)C1CCC(OC(=O)CN2CCOCC2)CC1 (stereo not shown) | 7.27
37 | CC1CCN(S(=O)C23CC4CC(CC(C4)C2)C3)CC1 (stereo not shown) | 16.3
38 | N#C/C(=C\C=C\c1ccccc1[N+](=O)[O-])c1nc(-c2ccc3c(c2)OCO3)cs1 | 2.11
39 | CCC(C(=O)OCC(=O)NC1CCS(=O)(=O)C1)c1ccccc1 (stereo not shown) | 3.33
40 | COCCN=C1NN=C(c2cc(C)n(CC3CCCO3)c2C)CS1 (stereo not shown) | 18.2
41 | COc1ccc(CN2C(=O)c3ccccc3C2C(=O)NCC2CCCO2)c(OC)c1 (stereo not shown) | 12.2
42 | CC(=O)NC(=O)NC(C)Cc1ccccc1 (stereo not shown) | 15.9
43 | O=C(NC1CCCC1)c1cc(-c2ccc(Cl)cc2)on1 | 10.9
44 | O=c1cc(-c2ccc(O)cc2)oc2c(O)c(O)c(O)c(O)c12 | 7.06

Row | SMILES | hERG current change (%, negative = inhibition) at 1uM [%]
45 | Cc1cccc(-c2nc(CS(=O)CC(=O)NCCc3ccc(Cl)cc3)c(C)o2)c1 (stereo not shown) | 21.8
46 | O=C(Nc1nc2ccc(Cl)cc2s1)c1ccc(N2CCCCC2)c([N+](=O)[O-])c1 | 16
47 | Cc1nn(Cc2noc(C(=O)NCCCn3ccnc3)n2)c(C)c1Br | 15.3
48 | Cc1cccc(C(=O)NCC(=O)N2CCOCC2)c1 | 11.8
49 | Cl.OCCN(CCO)CC(O)COc1ccc2c(c1)OCO2 (stereo not shown) | 10.3
50 | CCCCSc1ncc(C(=O)OCC)c(N)n1 | 1.47
51 | Cc1cc[n+](-c2[nH]c(=O)sc2/C=N/N=C(\[O-])CCn2c3ccccc3c3ccccc32)cc1 | 12.1
52 | CC1CCCC(C)N1/N=C/c1ccccc1F (stereo not shown) | 11.8
53 | COc1cc(CNCCc2ccccc2F)ccc1OCC(=O)N1CCCCC1.Cl | 12.8
54 | COc1ccc(NS(=O)(=O)c2ccc(C)c(C(=O)N3CC(C)OC(C)C3)c2)cc1 (stereo not shown) | -3.59
55 | CC(C)(C)c1ccc2c(c1)OCC(C(=O)O)O2 (stereo not shown) | 13.3
56 | Cc1cnc(C(=O)NCCc2ccc(S(=O)(=O)NC(=O)NC3CCCCC3)cc2)cn1 | 7.62
57 | CCOC(=O)C1CCN(C(=O)Cn2c(=O)c3cccn3c3cccnc32)CC1 | 11.3
58 | COc1ccc(NC(=O)c2nn(C)c(C(=O)Nc3ccc(OC)cc3)c2[N+](=O)[O-])cc1 | 16.3
59 | CC(C)CNS(=O)(=O)c1ccc(S(=O)(=O)NC2CCOC(C)(C)C2)cc1 (stereo not shown) | 13.1
60 | O=C(Oc1ccc(C(=S)N2CCOCC2)cc1)c1ccc([N+](=O)[O-])cc1 | 14.5
61 | CCn1c(SCC(=O)NCc2ccco2)nc2cccnc21 | 3.54
62 | COc1cccc(/C=N/NC(=O)c2ccc(CN3c4cccc5cccc(c45)S3(=O)=O)cc2)c1 | 4.52
63 | COc1ccc(-c2nonc2NC(=O)c2oc3ccccc3c2C)cc1OC | 1.91
64 | CC1CCc2nc(NC(=O)CN3CCN(c4ccc(F)cc4)CC3)sc2C1 (stereo not shown) | 13.5
65 | CCOc1ccc2cc(C#N)c(SCC(=O)N3CCOCC3)nc2c1 | 16.9
66 | COc1ccc(NC(=O)CSc2nc3ccsc3c(=O)n2CCCCCC(=O)O)cc1 | 6.65

Row | SMILES | hERG current change (%, negative = inhibition) at 1uM [%]
67 | Cc1cc(NC(=O)c2ccc(NC(=O)c3cccs3)cc2)no1 | -1.25
68 | O=c1cc(O)nc2n1CCCS2 | 14.6
69 | CC(CN1CCN(C)CC1)OC(=O)c1ccccc1Cl (stereo not shown) | 5.36
70 | CCOC(=O)N1CCC(NC(=O)C2=CCN(S(=O)(=O)c3ccc(F)cc3)CC2)CC1 | 5.63
71 | CCN(CC)CCN1C(=O)C(O)=C(C(=O)c2cc3cccc(OC)c3o2)C1c1ccc(F)cc1 (stereo not shown) | 17.1
72 | CC(=O)c1ccccc1OCc1ccc(S(=O)(=O)Cc2ccccc2)cc1 | 9.23
73 | CCOCc1nnc(NS(C)(=O)=O)s1 | 7.92
74 | Cc1ccc(-c2cc(-c3ccccc3)c(C#N)c(Br)n2)cc1 | 2.12
75 | O=C(Nc1cccc(Cl)c1N1CCCCC1)c1ccc(N2CCOCC2)c([N+](=O)[O-])c1 | 1.24
76 | COc1cccc(NC(=O)NC2CC(=O)N(c3ccc4c(c3)OCCO4)C2)c1 (stereo not shown) | 1.62
77 | O=C(NNC(=O)c1ccc(F)c(S(=O)(=O)N2CCOCC2)c1)c1ccc([N+](=O)[O-])cc1 | -12.1
78 | CCC(C)[C@H](NC(=O)[C@@H]1CSC2c3ccccc3C(=O)N21)C(=O)NCc1ccncc1 (stereo partly shown) | 5.04
79 | COc1cccc(-c2nn(Cc3ccccc3)cc2C(=O)O)c1 | 11.9
80 | COC(=O)N/N=C/c1cc([N+](=O)[O-])cc(Br)c1O | 31.9
81 | COc1ccc(N(CC(=O)Nc2ccccc2C(=O)N2CCCC2)S(=O)(=O)c2ccccc2)cc1 | -6.9
82 | COc1ccc(N2CCN(c3nccs3)CC2)cc1 | 13.8
83 | O=[N+]([O-])c1ccc(OCCn2cnc3ccccc32)cc1 | -3.95
84 | CC(C)CN(C(=O)CCCOc1ccc(Cl)cc1Cl)c1c(N)n(Cc2ccccc2)c(=O)[nH]c1=O | 1.36
85 | CCCN(CC(=O)Nc1cc(C)on1)S(=O)(=O)c1cccc(C(F)(F)F)c1 | 11.3
